Laboratory results from the supplement of paper PMC3334620.
Over roughly 33,000 sequences, “E-score (-0.5 to 0.5)” has its median near -0.036; the highest 2% begin near 0.37. This is one part of the list.

molecular target: T1, Yer064c (UniProt P40041); test: PBM E-score (8-mer binding enrichment) (E-score (-0.5 to 0.5)); higher = stronger / more preferred TF binding; most listed sequences are background and not binding sites; settings: protein concentration: 200 nM; construct: GST-full length
T1 sequence: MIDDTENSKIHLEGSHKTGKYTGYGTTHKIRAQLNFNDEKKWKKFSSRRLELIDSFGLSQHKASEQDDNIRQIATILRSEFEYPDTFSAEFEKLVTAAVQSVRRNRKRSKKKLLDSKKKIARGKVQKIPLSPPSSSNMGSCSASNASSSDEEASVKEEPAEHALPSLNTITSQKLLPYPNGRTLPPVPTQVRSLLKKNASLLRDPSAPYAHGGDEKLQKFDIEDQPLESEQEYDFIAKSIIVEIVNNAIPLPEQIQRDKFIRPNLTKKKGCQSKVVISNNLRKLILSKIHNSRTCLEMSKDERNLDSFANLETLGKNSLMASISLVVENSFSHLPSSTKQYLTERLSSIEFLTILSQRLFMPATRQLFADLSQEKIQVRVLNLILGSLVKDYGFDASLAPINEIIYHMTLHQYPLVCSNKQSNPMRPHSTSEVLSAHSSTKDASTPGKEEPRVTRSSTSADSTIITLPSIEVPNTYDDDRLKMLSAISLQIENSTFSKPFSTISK
Procedure, shortened: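 Universal all-10-mer Agilent arrays, double-stranded by primer extension on fresh or once-stripped slides, were probed with about 100-200 nM GST-tagged yeast transcription factors made by PURExpress. Fluorescent anti-GST detected bound protein, and masliner normalised the scans. E-scores from the Universal PBM Analysis Suite were given to each ungapped eight-base word pooled with its reverse complement.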

Sequence	PBM E-score
AATCAACC	0.273
AACCTCGA	-0.153
CTAAGAGC	-0.23
AGGCCCAC	-0.315
AAGCCGAC	-0.0186
AACTTGGA	-0.149
ACTTCCGA	0.00292
CCACCTCC	-0.283
GAATACGC	-0.106
ACCGTCAA	-0.17
CGTTCAGC	-0.155
AACCGCGA	0.0631
AGGGCGAC	-0.0248
GGGATGAC	0.198
TCACCGCA	0.0844
CCAGCTGG	-0.0805
GAACATAA	-0.134
CGTCATAG	-0.0141
CGGCCTGC	-0.278
TCGGGTAA	-0.033
ATGGCCGA	-0.0927
GGCGGCAA	-0.227
GCCTAAAC	-0.0176
GCGGAGAC	0.161
AGCGCGTG	-0.0222

Sequence	PBM E-score
AGTAGTGC	-0.0503
GTGTCTGA	0.197
CGGAAGCC	-0.341
AGTGGCGA	0.0753
GCAACATA	-0.138
GTGTCCTA	0.0401
GCGAAGAA	-0.0771
ATTCCACG	-0.0197
TGACACCA	0.0885
TCGAATAA	-0.00971
CGCCCAAG	-0.0982
CTCGGTCC	-0.0661
CCAGACAC	-0.27
CTAAACTA	0.0923
CATCGCCC	-0.0376
CGTGATAG	0.0489
CATTACCC	0.0868
CGGTTACA	-0.0508
TGATTAAA	0.418
ACCGAGAT	-0.00548
ACAGGCTA	-0.154
ATTTTAAG	0.0231
CATTTTCG	0.0515
AGGTAACG	-0.0878
AAGGGCGT	-0.144

Sequence	PBM E-score
CACTCTCG	0.0082
GGATAGAA	-0.0854
CCTGCGAG	-0.0918
GCTAGACA	0.0623
GCCCTGCA	-0.179
CGGCTGTA	-0.0797
AACCGAAG	0.206
AGACGTAA	0.0987
AAGATACC	0.015
CTCCTGAA	-0.152
ATCCATTG	0.122
GGCATGGA	-0.152
CTGAATGC	-0.199
AGCGCCAG	-0.038
CCTGTCAA	0.0361
ACTCAGGC	0.331
GTTATGTA	-0.0587
AGCACCCT	-0.168
CACACTCC	-0.158
ACAGGGCG	-0.224
TCCAGGGA	-0.0169
AGGAGCTG	-0.148
AAGGGCGA	-0.145
ATCCCGTG	0.0256
AACATATC	-0.178

Sequence	PBM E-score
GCTCGGGA	-0.0507
CGGGAGAC	0.106
GATACGTA	0.0194
ATGTGTGA	0.167
ATCTTTCC	-0.0758
AAGTAATC	0.336
CAAGGTCA	0.11
ATTCTCGC	-0.124
AGTGAAAG	-0.0856
CCATGCCA	-0.113
ATGAACAT	0.00334
CAAACTAG	0.00734
AGGTGCCC	-0.26
CAGGATAG	-0.0344
ATCTTGGC	0.0855
GAACAGTC	0.203
AGAAAGAG	0.00362
CCCGTTTC	-0.434
CTCCTCGC	-0.137
ATATGCGG	-0.188
AGCCGCTC	-0.221
ACGGAGTG	-0.215
AGCGCCAT	-0.345
CAAGTACC	-0.0773
AGGTCGGC	-0.0326

Sequence	PBM E-score
AACTCTAG	0.0266
AGATCCCT	-0.196
AGCCGCTG	-0.132
CACCTTCA	-0.299
ACCCGTGA	0.17
CTGCTAAC	0.0214
ACCACACC	-0.0812
GGGACCCC	-0.282
AAGGAGGT	-0.236
ACTCCAAA	0.197
CTTCCCTA	-0.166
ACCATCCC	-0.0582
AGTTGCCA	-0.223
CCTGTCGA	-0.125
CTGGTAAC	-0.0807
AAAATGAG	0.264
AATGACGG	-0.102
CACTGTGC	0.0911
CACAGGGG	0.0318
ATCGCTAG	-0.0983
GGGGAAGA	-0.177
TGCGAACA	-0.0364
AGTAGAAG	-0.158
AAGACAGT	0.172
ACAGGGGC	-0.231

Sequence	PBM E-score
CCCCGAAC	-0.178
CAGTGGTA	-0.123
AAGGGGAA	-0.287
AATCTGGG	-0.183
ATAAGCGG	0.0739
GCACCCAC	0.0735
AACAGACT	0.176
AGCTAGGA	-0.0898
ACTAGGAT	0.222
CCCGTACC	-0.31
CAGTTAGC	-0.147
AACGATCA	0.0743
AAACTGAG	0.144
GTGGCCGA	-0.141
AGCAGGAC	-0.108
GTGGATTA	-0.0636
CACTCAGA	0.0961
TATGTGGA	0.0736
ATGACCGG	-0.128
GATTCTCC	0.215
AGTATTTC	0.0118
CCCCTGAC	0.173
CCCTTCAA	-0.0771
AAACTCGT	-0.0123
TAGGAGAA	-0.0604

Sequence	PBM E-score
AAATCGGT	-0.108
ACTCGAGC	0.0418
AACGTTTC	-0.21
CGCAGAAA	-0.0505
GGTAGTGA	0.0671
GGACGACA	-0.0297
CAGTAAAG	0.0694
ATTGGCCC	-0.172
CCGCGGAC	-0.0248
CACCAGCG	-0.128
AACTTAAA	0.117
ATACTACA	0.0739
AATGAGAG	-0.112
AACACTGT	-0.0707
CTTGCCCA	-0.11
GACGGAAA	0.00096
ACACGGGG	-0.249
AGTCAGTG	0.427
AGGAAACC	-0.158
AAATTTCG	-0.109
AGCAGCCT	-0.284
GGGTAAAA	0.127
CCGTAAAA	0.00527
CCCCCGCG	-0.257
CAGCAAAA	-0.18

Sequence	PBM E-score
GCATTCGA	-0.0637
TCGTCTCA	0.0637
CTCTTACC	0.0718
AAAGCTAC	-0.162
CACCAACG	-0.0961
CTCCTCTA	-0.0335
CTTAAAAC	0.0823
CGCCGGCG	0.22
CGCTAGAC	-0.0529
CATTAAAG	-0.0357
ACAACACC	-0.0036
AATCGGGT	0.0223
CAGTCGTA	0.265
GGCCCCCC	-0.349
GAAATAGA	0.0343
GTCTCGCA	0.174
GAAGTACC	-0.122
AGACCGTC	-0.26
CCTCCGCG	-0.249
TATAGAAA	0.0536
AAAGTACC	-0.0733
CCGATGTA	-0.124
CTTCTACC	-0.118
ATAGCCAC	0.128
ACATAGGC	-0.294

Sequence	PBM E-score
CTGCGGCC	-0.379
CTGCGGGC	-0.0933
AATATCAG	-0.124
ACTATAGT	0.259
GTTCGCAA	0.102
ATCGAAAA	-0.0181
CTGAAATA	0.0578
AACCTTCC	-0.153
GCGTCACC	-0.232
CAGAAACG	-0.112
TAATTACA	0.0531
AAAGTTTA	0.00518
GATGAAAC	0.0107
CGGGCGCA	-0.168
GGTTTACA	-0.0888
AGCGGGGC	-0.247
ACCATACG	-0.0624
AGCGAATG	-0.188
AAGGCCTG	-0.162
